# Test results taken from the supplement of paper PMC8728848.
# The other results are listed elsewhere or left out.
# B1: AFCNVH (Aspergillus fumigatus) (protein)
# chain: MSLRGFHTTCDTIVLKDKHILSSRCKRPDGTYSFSEIDLNDCLGNNNGKFVWGGESFVDSASQVNLALEGGEGRPMLHAQLNDWHGSVQSASVNLGECIQNEAGGLEYMHC
# Experiments:
# Test in all cases: glycan array binding signal (z-score within array); higher = stronger binding
# Conditions in all cases: glycan notation: IUPAC condensed, linker removed
# [1] = target: Fuc(a1-2)Gal
# How it was run: (§1)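 Glycan array data came from 3228 arrays in the Consortium for Functional Glycomics database, and only arrays with an available protein sequence were kept. Glycan names were put into IUPAC-condensed notation, and columns mapping to the same glycan were averaged. The binding signal is a within-array Z-score, averaged across arrays of one protein sequence run at different concentrations or buffers and across linkers. A negative Z-score can be read as non-binding.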
# [2] = target: Fuc(a1-2)Gal(b1-3)GalNAc
# How it was run: as §1
# [3] = target: Fuc(a1-2)Gal(b1-3)GalNAc(a1-3)[Fuc(a1-2)]Gal(b1-4)Glc
# How it was run: as §1
# [4] = target: Fuc(a1-2)Gal(b1-3)GalNAc(a1-3)[Fuc(a1-2)]Gal(b1-4)GlcNAc
# How it was run: as §1
# [5] = target: Fuc(a1-2)Gal(b1-3)GalNAc(b1-3)Gal
# How it was run: as §1
# [6] = target: Fuc(a1-2)Gal(b1-3)GalNAc(b1-3)Gal(a1-4)Gal(b1-4)Glc
# How it was run: as §1
# [7] = target: Fuc(a1-2)Gal(b1-3)GalNAc(b1-4)[Neu5Ac(a2-3)]Gal(b1-4)Glc
# How it was run: as §1
# [8] = target: Fuc(a1-2)Gal(b1-3)GlcNAc
# How it was run: as §1
# [9] = target: Fuc(a1-2)Gal(b1-3)GlcNAc(b1-2)Man(a1-3)[Fuc(a1-2)Gal(b1-3)GlcNAc(b1-2)Man(a1-6)]Man(b1-4)GlcNAc(b1-4)GlcNAc
# How it was run: as §1
# [10] = target: Fuc(a1-2)Gal(b1-3)GlcNAc(b1-2)Man(a1-3)[Fuc(a1-2)Gal(b1-3)GlcNAc(b1-2)Man(a1-6)]Man(b1-4)GlcNAc(b1-4)[Fuc(a1-6)]GlcNAc
# How it was run: as §1
# [11] = target: Fuc(a1-2)Gal(b1-3)GlcNAc(b1-3)Gal(b1-4)Glc
# How it was run: as §1
# [12] = target: Fuc(a1-2)Gal(b1-3)GlcNAc(b1-3)GalNAc
# How it was run: as §1
# [13] = target: Fuc(a1-2)Gal(b1-3)GlcNAc(b1-3)[Fuc(a1-2)Gal(b1-3)GlcNAc(b1-6)]GalNAc
# How it was run: as §1
# [14] = target: Fuc(a1-2)Gal(b1-3)GlcNAc(b1-3)[Gal(b1-4)GlcNAc(b1-6)]Gal(b1-4)Glc
# How it was run: as §1
# [15] = target: Fuc(a1-2)Gal(b1-3)GlcNAc(b1-3)[Neu5Ac(a2-6)Gal(b1-4)GlcNAc(b1-6)]Gal(b1-4)Glc
# How it was run: as §1
# [16] = target: Fuc(a1-2)Gal(b1-3)GlcNAc6S
# How it was run: as §1
# [17] = target: Fuc(a1-2)Gal(b1-3)[Fuc(a1-4)]GlcNAc
# How it was run: as §1
# [18] = target: Fuc(a1-2)Gal(b1-3)[Fuc(a1-4)]GlcNAc(b1-2)Man(a1-3)[Fuc(a1-2)Gal(b1-3)[Fuc(a1-4)]GlcNAc(b1-2)Man(a1-3)]Man(b1-4)GlcNAc(b1-4)GlcNAc
# How it was run: as §1
# [19] = target: Fuc(a1-2)Gal(b1-3)[Fuc(a1-4)]GlcNAc(b1-2)Man(a1-3)[Fuc(a1-2)Gal(b1-3)[Fuc(a1-4)]GlcNAc(b1-2)Man(a1-6)]Man(b1-4)GlcNAc(b1-4)[Fuc(a1-6)]GlcNAc(b1-4)[Fuc(a1-6)]GlcNAc
# How it was run: as §1
# [20] = target: Fuc(a1-2)Gal(b1-3)[Fuc(a1-4)]GlcNAc(b1-3)[Fuc(a1-3)[Gal(b1-4)]GlcNAc(b1-6)]Gal(b1-4)Glc
# How it was run: as §1
# [21] = target: Fuc(a1-2)Gal(b1-3)[Fuc(a1-4)]GlcNAc(b1-3)[Gal(b1-4)GlcNAc(b1-6)]Gal(b1-4)Glc
# How it was run: as §1
# [22] = target: Fuc(a1-2)Gal(b1-4)Fuc(a1-3)]GlcNAc(b1-2)Man(a1-3)[Fuc(a1-2)Gal(b1-4)[Fuc(a1-3)]GlcNAc(b1-2)Man(a1-6)]Man(b1-4)GlcNAc(b1-4)GlcNAc
# How it was run: as §1
# [23] = target: Fuc(a1-2)Gal(b1-4)Glc
# How it was run: as §1
# [24] = target: Fuc(a1-2)Gal(b1-4)Glc6S
# How it was run: as §1
# [25] = target: Fuc(a1-2)Gal(b1-4)GlcNAc
# How it was run: as §1
# [26] = target: Fuc(a1-2)Gal(b1-4)GlcNAc(b1-2)Man
# How it was run: as §1
# [27] = target: Fuc(a1-2)Gal(b1-4)GlcNAc(b1-2)Man(a1-3)[Fuc(a1-2)Gal(b1-4)GlcNAc(b1-2)Man(a1-6)]Man(b1-4)GlcNAc(b1-4)GlcNAc
# How it was run: as §1
# [28] = target: Fuc(a1-2)Gal(b1-4)GlcNAc(b1-2)Man(a1-3)[Fuc(a1-2)Gal(b1-4)GlcNAc(b1-2)Man(a1-6)]Man(b1-4)GlcNAc(b1-4)[Fuc(a1-6)]GlcNAc
# How it was run: as §1
# [29] = target: Fuc(a1-2)Gal(b1-4)GlcNAc(b1-2)[Fuc(a1-2)Gal(b1-4)GlcNAc(b1-4)]Man(a1-3)[Fuc(a1-2)Gal(b1-4)GlcNAc(b1-2)Man(a1-6)]Man(b1-4)GlcNAc(b1-4)GlcNAc
# How it was run: as §1
# [30] = target: Fuc(a1-2)Gal(b1-4)GlcNAc(b1-3)Gal(b1-4)GlcNAc
# How it was run: as §1
# [31] = target: Fuc(a1-2)Gal(b1-4)GlcNAc(b1-3)Gal(b1-4)GlcNAc(b1-2)Man(a1-3)[Fuc(a1-2)Gal(b1-4)GlcNAc(b1-3)Gal(b1-4)GlcNAc(b1-2)Man(a1-6)]Man(b1-4)GlcNAc(b1-4)GlcNAc
# How it was run: as §1
# [32] = target: Fuc(a1-2)Gal(b1-4)GlcNAc(b1-3)Gal(b1-4)GlcNAc(b1-3)Gal(b1-4)GlcNAc
# How it was run: as §1
# [33] = target: Fuc(a1-2)Gal(b1-4)GlcNAc(b1-3)GalNAc
# How it was run: as §1
# [34] = target: Fuc(a1-2)Gal(b1-4)GlcNAc(b1-3)[Fuc(a1-2)Gal(b1-4)GlcNAc(b1-6)]GalNAc
# How it was run: as §1
# [35] = target: Fuc(a1-2)Gal(b1-4)GlcNAc(b1-3)[Fuc(a1-3)[Gal(b1-4)]GlcNAc(b1-6)]Gal(b1-4)Glc
# How it was run: as §1
# [36] = target: Fuc(a1-2)Gal(b1-4)GlcNAc(b1-6)GalNAc
# How it was run: as §1
# [37] = target: Fuc(a1-2)Gal(b1-4)GlcNAc6S
# How it was run: as §1
# [38] = target: Fuc(a1-2)Gal(b1-4)[Fuc(a1-3)]GlcNAc
# How it was run: as §1
# [39] = target: Fuc(a1-2)Gal(b1-4)[Fuc(a1-3)]GlcNAc(b1-2)Man(a1-3)[Fuc(a1-2)Gal(b1-4)[Fuc(a1-3)]GlcNAc(b1-2)Man(a1-6)]Man(b1-4)GlcNAc(b1-4)[Fuc(a1-6)]GlcNAc
# How it was run: as §1
# [40] = target: Fuc(a1-2)Gal(b1-4)[Fuc(a1-3)]GlcNAc(b1-2)[Fuc(a1-2)Gal(b1-4)[Fuc(a1-3)]GlcNAc(b1-4)]Man(a1-3)[Fuc(a1-2)Gal(b1-4)[Fuc(a1-3)]GlcNAc(b1-2)Man(a1-6)]Man(b1-4)GlcNAc(b1-4)GlcNAc
# How it was run: as §1
# [41] = target: Fuc(a1-2)Gal(b1-4)[Fuc(a1-3)]GlcNAc(b1-3)Gal(b1-4)[Fuc(a1-3)]GlcNAc
# How it was run: as §1
# [42] = target: Fuc(a1-2)Gal(b1-4)[Fuc(a1-3)]GlcNAc(b1-3)Gal(b1-4)[Fuc(a1-3)]GlcNAc(b1-3)Gal(b1-4)[Fuc(a1-3)]GlcNAc
# How it was run: as §1
# [43] = target: Fuc(a1-2)Gal(b1-4)[Fuc(a1-3)]GlcNAc(b1-3)GalNAc
# How it was run: as §1
# [44] = target: Fuc(a1-2)Gal(b1-4)[Fuc(a1-3)]GlcNAc(b1-3)[Neu5Ac(a2-6)Gal(b1-4)GlcNAc(b1-6)]Gal(b1-4)Glc
# How it was run: as §1
# [45] = target: Fuc(a1-2)Gal3S(b1-4)GlcNAc
# How it was run: as §1
binder,measurement,setting,value
B1,glycan array binding signal (z-score),[1],-0.259
same,glycan array binding signal (z-score),[2],-0.434
same,glycan array binding signal (z-score),[3],-0.205
same,glycan array binding signal (z-score),[4],-0.111
same,glycan array binding signal (z-score),[5],-0.266
same,glycan array binding signal (z-score),[6],-0.399
same,glycan array binding signal (z-score),[7],-0.453
same,glycan array binding signal (z-score),[8],-0.264
same,glycan array binding signal (z-score),[9],-0.051
same,glycan array binding signal (z-score),[10],-0.243
same,glycan array binding signal (z-score),[11],-0.433
same,glycan array binding signal (z-score),[12],-0.456
same,glycan array binding signal (z-score),[13],-0.415
same,glycan array binding signal (z-score),[14],-0.283
same,glycan array binding signal (z-score),[15],-0.37
same,glycan array binding signal (z-score),[16],-0.374
same,glycan array binding signal (z-score),[17],-0.463
same,glycan array binding signal (z-score),[18],-0.108
same,glycan array binding signal (z-score),[19],-0.401
same,glycan array binding signal (z-score),[20],-0.249
same,glycan array binding signal (z-score),[21],-0.183
same,glycan array binding signal (z-score),[22],-0.233
same,glycan array binding signal (z-score),[23],-0.408
same,glycan array binding signal (z-score),[24],-0.391
same,glycan array binding signal (z-score),[25],-0.239
same,glycan array binding signal (z-score),[26],-0.047
same,glycan array binding signal (z-score),[27],-0.119
same,glycan array binding signal (z-score),[28],-0.175
same,glycan array binding signal (z-score),[29],-0.277
same,glycan array binding signal (z-score),[30],-0.175
same,glycan array binding signal (z-score),[31],-0.126
same,glycan array binding signal (z-score),[32],-0.383
same,glycan array binding signal (z-score),[33],-0.105
same,glycan array binding signal (z-score),[34],-0.442
same,glycan array binding signal (z-score),[35],-0.396
same,glycan array binding signal (z-score),[36],-0.421
same,glycan array binding signal (z-score),[37],-0.421
same,glycan array binding signal (z-score),[38],-0.405
same,glycan array binding signal (z-score),[39],-0.288
same,glycan array binding signal (z-score),[40],-0.337
same,glycan array binding signal (z-score),[41],-0.23
same,glycan array binding signal (z-score),[42],0.141
same,glycan array binding signal (z-score),[43],-0.393
same,glycan array binding signal (z-score),[44],-0.454
same,glycan array binding signal (z-score),[45],-0.445
